Source: the supplement of paper PMC8277577
Positions count from the first letter of the chain named. Recombinant human monoclonal antibodies (heavy:light variable regions). ELISA EC50 on the named antigen, from 10 µg/ml down; lower = stronger. No active / inactive call.

Target: SARS-CoV-2 Wuhan-Hu-1 spike receptor-binding domain
Assay: ELISA binding EC50; higher = weaker binding; ELISA of recombinant human antibody on coated antigen, from 10 µg/ml in fourfold dilutions; four-parameter fit.

B1: C1016 (protein)
chain 1: QVQLQESGPGLVKPSGTLSLTCAVSGGPISSNHWWSWVRQPPGKGLEWIGEVYRNGNTNYHPSLKSRVTMSIDNSKNQFSLSLTSVTAADTAVYYCARGGDLAMGPEYLDFWGQGTLVTVSS
chain 2: QSALTQPASVSGSPGQSITISCTGTSSDVGANNYVSWYQQHPGKAPKLMIYDVINRPSGVSDRFSGSKSGNTASLTISGLQAEDEADYYCSSFSTSSTLLFGGGTKLTVL
  ELISA binding EC50: 2.16 ng/mL

B2: C1018 (protein)
chain 1: QVQLVESGGGVVQPGRSLRLLCAASGFTFNTHGMHWVRQAPGKGLEWVAVIWFDGSNKYYADSVKGRFTISRDNSTNTLYLQMNSLRAEDTAVYYCARVYGGLPYYYAIDVWGQGTTVTVSS
chain 2: QSVLTQPPSVSGAPGQRVTISCAGSSSNIGAGYGVHWSQQLPGRPPKLLIYGDSNRPSGVPDRFSGSNSGTSASLAITGLQAEDEAVYYCQSYDRSLRAWVFGGGTKLSVL
  ELISA binding EC50: 3.09 ng/mL

B3: C844 (protein)
chain 1: EVQLVESGGGLVKPGGSLRLSCVATGFSFSDAWMNWVRQAPGKGLEWVGRIRSEIADGTTDYAAPVKGRFTISRDDARNTLYLQMNSLEIEDTAVYYCTTGVVVVVSSSPDDAFDVWGQGTMVTVSS
chain 2: DIQMTQSPSSLSASVGDRVTITCRASQSIGHYLNWYQQKPGKAPKLLIYAASSLQSGVPSRFSGSGSGAGFTLTVNGLQPEDLATYYCQQYYTTPPTFGQGTKVEIK
  ELISA binding EC50: 1.28 ng/mL

B4: C1002 (protein)
chain 1: EVQLVESGGGLVQPGGSLRLSCAASEFIVSSNYMTWVRQAPGKGLEWVSIMYPGGSTFYADSVKGRFTISRDNSKNTLYLQINRLRAEDTAVYYCARDIAGRLDYWGQGTLVTVSS
chain 2: DIQMTQSPSSLSASVGDRVTITCQASQDINNYLNWYQQKPGKAPKLLIYDASNLETGVPSRFSGSGSGTDFSFTISSLQPEDIATYYCQQYDNLSRLTFGGGTKVEIK
  ELISA binding EC50: 0.83 ng/mL

B5: C1010 (protein)
chain 1: QVQLVESGGGVVQPGRSLRLSCAASGFTFSSYAMHWVRQAPGKGLEWVAVISYDGSNKYYADSVKGRFTISRDNSKNTLYLQMNSLRAEDTAVYYCAKKGQPYCGGDCYFYYFDYWGQGTLVTVSS
chain 2: B4 chain 2 with V15L, N30S, S72T, S95P, R96P, L97I, G101Q, K104R, V105L
  ELISA binding EC50: 2.45 ng/mL

B6: C1011 (protein)
chain 1: QVQLVESGGGVVQPGRSLRLSCAVSGFTFSHYAMHWVRQAPGKGLEWVAVISYDGADKYYADSVRGRFTIARDNSKNTLFLQMSSLRPEDTAVYYCAKKGQPYCGGDCHFYYLDYWGQGTLVTVSS
chain 2: B4 chain 2 with N30S, Y32H, S72T, P80A, S95P, R96P, L97I, G101Q, K104R, V105L
  ELISA binding EC50: 1.49 ng/mL

B7: C1019 (protein)
chain 1: QVQLVESGGGVVQPGTPLRLSCAASGFTFSSYAMHWVRQAPGKGLEWVAMISYDGGNKYYADSVKGRFTISRDNSKNTLFLQMNSLRGEDTAVYYCARSFSIRIGHKDNWGQGTLVTVSS
chain 2: NFMLTQPHSVSESPGKTVTISCTGSSGSIANNYVQWYQQRPGSAPTPVIYEDDQRPSGVPDRFSGSIDSSSNSASLSISGLKTEDEADYYCQSYDSTNFWVFGGGTKLTVL
  ELISA binding EC50: 2.8 ng/mL

B8: C845 (protein)
chain 1: QVQLQESGPGLVKPSQTLSLTCTVSGASISSGEYYWSWVRQPPGKGLEWVGYIYYSGSTYYNPSLKSRVTISVDTSKNHFSLKLKSLTAADTAVYFCATGGLSAFGELFPHDKWGQGTLVTVSS
chain 2: EIVLTQSPATLSLSPGERATLSCRASQSVGSDLAWYQQKPGQAPRLLIYDTSNRATGIPARFSGSGSGTDFTLTISSLDPADFAVYYCQQRTNWLFSFGPGTKVDIK
  ELISA binding EC50: 1.39 ng/mL

B9: C1006 (protein)
chain 1: QVQLVQSGAEVRKPGSSVKVSCKASGGPFDQYTFSWVRQAPGQGLEWMARITPVVDLTNYAQKFQGRITIITDKSTSTAYMELSSLRSEDTAIYYCATPLNDYYASGNLGLWGQGTLVTVSS
chain 2: DIQMTQSPSSLSASIGDRVTITCRASQGISYYLAWFQQKPGEAPRSLIYDASSLQSGVPSKFSGSGSGTDFTLTISSLQPEDSATYYCQQYNSYPLTFGGGTKVEIK
  ELISA binding EC50: 2.04 ng/mL

B10: C1007 (protein)
chain 1: QVQLVQSGSEMKKPGSSVKVSCKAAGGTLNTHTFSWVRQAPGQGLEWMGRITPTVDLTNYAQKFQGRITITADTSTNTAYLELRRLRSEDTAIYYCATPLNDYYASGNLGLWGQGTLVTVSS
chain 2: B9 chain 2 with R18T, Q38R, E42K, R45K, N92S, S93T
  ELISA binding EC50: 3.22 ng/mL

B11: C1020 (protein)
chain 1: QVQLVQSGAEVKKPGASVKISCKASGYSFSNYYIHWVRQAPGQGLEWMGIINPSGNSISYAQKFQGRVTMTGDTSTSTVYMELSSLRSEDTAVYYCARSVFPVPAAGGCDYWGQGTLVTVSS
chain 2: DIQMTQSPSSLSASVGDRVTITCRASQSITTSLNWYQQKPGKAPKLLIYSASTLESGVPSRFSGSGSGTDFTLTISSLQPEDFATYYCQQTYRAPPYTFGQGTKLEIK
  ELISA binding EC50: 2.06 ng/mL

B12: C1012 (protein)
chain 1: QVQLVQSGAEVKKPGSSVKVSCKASGGTVNNYAINWVRQAPGQGLEWMGGIVPIFGTPNYAQKFQGRVTITADESTSTAYMELSSLRSEDTAVYYCAKVSLTLPIAAAPRFWFDSWGQGTLVTVSS
chain 2: EIVMTQSPATLSVSPGERATLSCRASQSVSSHLAWYQQKPGQAPRLLIYGASTRATGIPARFSGSGSGTEFTLTISSLQSEDFAVYYCQQYHNWPPALTFGGGTKVEIK
  ELISA binding EC50: 3.29 ng/mL

B13: C1013 (protein)
chain 1: QVQLVQSGVEVKKPGSSVKVSCKASGGTFTDYAFSWVRQAPGQGLEWMGGIVPIFATPDYAEKFRGRVTITADESTSTAYMELSTLKSEDTAVYYCARASLTLPIRAAPRFWFDAWGQGTLVTVSS
chain 2: B12 chain 2 with S28G, S31T, N93K
  ELISA binding EC50: 8.92 ng/mL

B14: C1014 (protein)
chain 1: QVQLQESGPGLVRPSQTLSLTCTVSGGSIGSGAYWSWIRQHPAKGLEWIGYVYYSGSTFYNPSLETRVSISVDISKDQFSLELTSVTVADTAVYYCAREKIEVVSIEMRPHYYGIDVWGQGTTVTVSS
chain 2: EIVMTQSPATLSVSPGERATLSCRASQSISSNLAWYQQKPGQPPRLLIYGASTRATGIPARFSGSGSGTEFTLTISSLQSEDIAVYYCQHYNNWPPWTFGQGTKVDIK
  ELISA binding EC50: 2.95 ng/mL

B15: C1008 (protein)
chain 1: EVQLVESGGGLIQPGGSLRLSCAASGFTVSSNYMSWVRQAPGKGLEWVSVIYSGGSTYYADSVKGRFTISRDNSKNTLYLQMNSLRAEDTAVYYCARVVGYDFWSGYDGGYFDYWGQGTLVTVSS
chain 2: QSALTQPASVSGSPGQSITISCTGTSSDVGSYNLVSWYQQHPGKAPKLMIYEVSKRPSGVSNRFSGSKSGNTASLTISGLQAEDEADYYCCSYAGSSTWVFGGGTKLTVL
  ELISA binding EC50: 17.2 ng/mL

B16: C1009 (protein)
chain 1: EVQLVESGGGLLQPGGSLRLSCAASGFSVSSNYMTWVRQAPGKGLEWVAAIYSGDSTYYVDSVKGRFIISRDNSKNTVYLHLSSLRAEDTAVYYCARLVGYDFRSGSDGGYFDYWGHGTLVTVSS
chain 2: B15 chain 2 with V29I, S31N, E52D, A86T
  ELISA binding EC50: 1.34 ng/mL

B17: C1003 (protein)
chain 1: QVQLVESGGGVVQPGRSLRLSCAASGFAFSSYGMNWVRQAPGKGLEWVTTVSSDGNVNYYIDSVKGRFTISRDNSKNTLYLQMNSLRGDDTAVYYCAKGPRFGWSYRGGSGFDIWGQGTMVTVSS
chain 2: DIQMTQSPSSLSASVGDRVTITCQASQDISNYLNWYQQKPGKAPKLLIYDASNLETGVPSRFSGSGSGTDFTFTITSLQPEDIATYYCQQYDNLPITFGQGTRLEIK
  ELISA binding EC50: 1.82 ng/mL

B18: C1022 (protein)
chain 1: QVQLVQSGAEVKTPGASVKVSCQASGDTFTSQYLHWVRQAPGQGLEWMGIINPTAGSTTYAQKFQGRVTMTRDTSTSTVYMELRSLRSEDMAVYYCARGGFIPMVRGFIDHWGQGTLVTVSS
chain 2: QSALTQPASVSGSPGQSITISCTGTSSDVGGYNYVSWYQQHPGKAPKLMIYDVSNRPSGVSTRFSGSKSGNTASLTISGLQAEDEADYYCSSPTSSNTHVFGTGTKVTVL
  ELISA binding EC50: 1.66 ng/mL

B19: C1021 (protein)
chain 1: QVQLVQSGAELKKPGASVKVSCKASGYTFSTYYIHWVRQAPGQGLEWMGIINPEAGSTSYAQKFQGRVTMTTDTSTSTVYMELISLRSQDTAIYYCARDAVGVPAINSLEYWGQGTLVTVSS
chain 2: EIVLTQSPATLSLSPGERATLSCRASQSISSYLAWYQQKPGQAPRLLIYDASNRATDISARFSGSGSGTDFTLTISSLEPEDFAVYYCQHRSNWPPSFTFGGGTKVEIK
  ELISA binding EC50: 2.53 ng/mL
